Out of some 270,000 compounds screened, about 5,800 (2.1%) were called active. Roughly 16% stayed inconclusive and do not appear here. Calls come from the whole dose curve; as a rule, active = well fitted inhibition curve with a large enough effect; inconclusive = small, poorly fitted or top-dose-only effect; inactive = flat fitted curve, though single readings scatter. Only a part is listed here, and it is no random draw.

These results are taken from PubChem BioAssay AID1460 (National Center for Advancing Translational Sciences (NCATS), 2008).
% is set by controls: 0 for no effect and ±100 for the full control effect; potency is the fitted concentration of half-maximal effect.

Chain of UniProt P10636 (P10636 whole entry, looked up): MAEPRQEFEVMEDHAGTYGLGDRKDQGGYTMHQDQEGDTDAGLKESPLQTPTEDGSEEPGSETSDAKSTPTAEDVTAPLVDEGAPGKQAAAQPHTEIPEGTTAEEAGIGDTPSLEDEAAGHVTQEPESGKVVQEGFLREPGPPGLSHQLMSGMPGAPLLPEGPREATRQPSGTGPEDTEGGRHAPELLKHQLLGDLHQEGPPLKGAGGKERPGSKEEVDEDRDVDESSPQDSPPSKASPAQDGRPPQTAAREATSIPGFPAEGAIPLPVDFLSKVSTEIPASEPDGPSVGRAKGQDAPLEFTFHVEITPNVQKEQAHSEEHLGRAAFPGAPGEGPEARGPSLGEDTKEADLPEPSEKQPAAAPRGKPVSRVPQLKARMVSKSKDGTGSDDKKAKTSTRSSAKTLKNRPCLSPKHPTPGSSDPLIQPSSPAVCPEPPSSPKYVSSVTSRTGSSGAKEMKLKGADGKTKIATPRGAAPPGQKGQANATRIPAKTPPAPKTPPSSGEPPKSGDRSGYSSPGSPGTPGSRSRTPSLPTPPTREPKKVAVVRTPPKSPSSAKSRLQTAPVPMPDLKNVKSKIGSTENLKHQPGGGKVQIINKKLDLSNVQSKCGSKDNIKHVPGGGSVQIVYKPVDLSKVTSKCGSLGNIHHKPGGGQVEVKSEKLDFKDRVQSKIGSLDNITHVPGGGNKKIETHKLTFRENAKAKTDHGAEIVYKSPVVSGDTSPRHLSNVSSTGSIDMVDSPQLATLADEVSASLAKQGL

For this assay, the target named is Microtubule-associated protein tau (Homo sapiens) (UniProt P10636). As to the kind of experiment: qHTS for Inhibitors of Tau Fibril Formation, Thioflavin T Binding. Note: nearly all actives have a fitted effect of over 55% in size. The note with it: recombinant tau K18 P301L, heparin-induced fibrillization, ThT fluorescence; series mostly up to 57.4 µM; activity, negative = inhibition: at the top concentration. The gist of the method:
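ThT emission at 510 nm, taken 1 hr after adding 30 uM dye, quantifies aggregates formed when 20 uM heparin acts on human tau K18 P301L for 6 hr at 37 C.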
Regarding `NC(=O)c1sc2nc(-c3ccco3)ccc2c1N`, the Potency was active: 6.31 µM.

On to `CCCCCCC(=O)Cc1cc(OC)c(OC)cc1C=C(C(=O)OCC)C(=O)OCC`, for which the activity, negative = inhibition was inactive: -13.1% [at 11.5 µM].

Take `CCOc1ccccc1CNC(=O)c1cc2oc3ccccc3c2n1CC`: the “activity, negative = inhibition” value is inactive: -22.3%.

Consider `COC(=O)C1=C(C(=O)OC)[C@@H]2N(Cc3ccccc3)c3ccccc3[C@@]23C[C@@H](C(=O)OC)N(C(=O)COCc2ccccc2)C3=N1`, for which the activity, negative = inhibition is inactive: -10.9% [at 11.5 µM].

Take `COc1ccnc(CSC(N)=Nc2ccccc2OC)c1`: the Potency is active: 31.6 µM.

Consider `O=C(Nc1ccccc1)/C(=C/c1ccc2c(c1)OCO2)NC(=O)c1ccco1`, for which the “activity, negative = inhibition” value is inactive: -3.24%.

Take `O=C(/C=C/c1ccc(-c2ccccc2[N+](=O)[O-])o1)c1ccccc1`: the Potency was active: 17.8 µM.

In the case of `COc1cc(Cl)c(C)cc1NC(=O)c1ccc2c(SCC(=O)O)c3c(nc2c1)CCCC3`, the “activity, negative = inhibition” value is inactive: -18.3%.

In the case of `CCCC[C@@H]1C[C@H]1[C@@H](NC(=O)c1cccs1)c1ccc(Cl)cc1`, the “activity, negative = inhibition” value is inactive: -13.9%.

In the case of `O=C(C1=C[C@@H](C2CC2)C[C@@H](OCCCCO)O1)N1CCN(Cc2ccccc2)CC1`, the “activity, negative = inhibition” value was inactive: -6.68%.

Take `CCN1CC=C2C(C#N)=C(N)C(C#N)(C#N)C(c3cc(Cl)ccc3Cl)C2C1` (centres undefined): the Potency is active: 12.6 µM.

On to `COC(=O)CCCC1=CC2=CC(=O)C(C)(OC(=O)c3cccs3)C(=O)C2=CN1CCCCO` (centres undefined), for which the activity, negative = inhibition is inactive: -5.26% [at 11.5 µM].

As for `O=C(c1ccc(C(F)(F)F)cc1)N1CCC(=O)N([C@H](COCc2ccc(Cl)cc2)Cc2ccccc2)CC1`, the “activity, negative = inhibition” value was inactive: -15.5%.

Take `CC1c2cccc(O)c2C(O)=C2C(=O)[C@]3(O)C(O)=C(C(N)=O)C(=O)C(N(C)C)C3C(O)C21` (some centres undefined): the “activity, negative = inhibition” value is inactive: -9.38%.

`O=[N+]([O-])c1cc(Cl)c(O)c2ncccc12`: the Potency was active: 12.6 µM.

As to `COc1ccc(-c2ccc(C(=S)N3CCN(C(C)=O)CC3)o2)cc1`, the Potency was active: 28.2 µM.

Consider `CCC(=O)OCC(=O)[C@@]1(OC(=O)CC)[C@@H](C)C[C@H]2[C@@H]3CCC4=CC(=O)C=C[C@]4(C)[C@@]3(F)[C@@H](O)C[C@@]21C`, for which the “activity, negative = inhibition” value was inactive: -18%.

On to `COC(=O)CCC(=O)OC1(C)C(=O)C=C2C=C(C3CC3)N(CC3CC3)C=C2C1=O` (centres undefined), for which the activity, negative = inhibition was inactive: -12.4% [at 11.5 µM].

With `C[C@]1(C(=O)NCCc2c[nH]c3ccccc23)C=C[C@@H](Cc2ccccc2)N1C(=O)c1ccccc1`, the “activity, negative = inhibition” value was inactive: 3.63%.

In the case of `COc1ccc2c(c1)C(=O)[C@@H](OC(=O)NCc1ccc3c(c1)OCO3)[C@H](c1ccc(OC)c(Br)c1)O2`, the “activity, negative = inhibition” value was inactive: -3.34%.

Turning to `CCCCc1oc2ccccc2c1C(=O)c1cc(I)c(OCCN(CC)CC)c(I)c1`, the Potency entry was “inactive”.

`CN(Cc1cnc2nc(N)nc(N)c2n1)c1ccc(C(=O)NC(CCC(=O)O)C(=O)O)cc1` (centres undefined): the “activity, negative = inhibition” value is inactive: -6.35%.

As for `CCc1ccccc1N1CSC2=C(C#N)C(c3ccccc3F)CC(=O)N2C1` (centres undefined), the Potency is active: 28.2 µM.

In the case of `COc1ccc(Nc2c(-c3ccco3)nc3cccc(C)n23)cc1`, the “activity, negative = inhibition” value was inactive: -19.6%.

With `O=C(Nc1ccc([N+](=O)[O-])cc1Cl)c1cc(Cl)ccc1O`, the Potency is active: 7.08 µM.

`COc1ccc(-c2cc(=O)c3c(OC)c(OC)c(OC)c(OC)c3o2)cc1OC`: the Potency result was “inactive”.

`COC(=O)CCCC1=CC2=CC(=O)C(C)(OC(=O)c3cccs3)C(=O)C2=CN1Cc1ccco1` (centres undefined): the activity, negative = inhibition was inactive: -15.5% [at 11.5 µM].

In the case of `Cc1cccc(C2NC(=O)c3c(sc4c3CCN(C)C4)N2)c1O` (centres undefined), the Potency is active: 15.8 µM.

Turning to `CCCCCCN(C(=O)CCCCCN1C(=O)NC(c2ccc(-c3ccccc3)cc2)C(C(=O)OCc2ccccc2)=C1C)C(C(=O)NCCCC)c1cccc(C(=O)OC)c1` (centres undefined), the “activity, negative = inhibition” value was inactive: -8.26%.

For `Cc1ccc(-c2csc(NNC(=O)c3ccccc3)n2)cc1`, the Potency is active: 12.6 µM.

For the molecule `CC(C)CN1C=C2C(=O)C(C)(OC(=O)CCc3ccccc3)C(=O)C=C2C=C1c1ccc(C#N)cc1` (centres undefined), the activity, negative = inhibition is inactive: 8.8% [at 11.5 µM].

`O=C(C1=C[C@@H](c2ccc(Br)cc2)C[C@@H](OCCCCO)O1)N1CCOCC1`: the “activity, negative = inhibition” value is inactive: -6.46%.

Consider `Cc1cccc(C(=O)N2CCC(=O)N(C(COCc3ccccc3)Cc3ccccc3)CC2)c1` (centres undefined), for which the “activity, negative = inhibition” value is inactive: -3.15%.

In the case of `CCCCCCN(C(=O)CCCCCN1C(=O)NC(c2ccc(-c3ccccc3)cc2)C(C(=O)OCc2ccccc2)=C1C)C(C(=O)NCCCC)c1ccc(OCC(=O)OC)cc1` (centres undefined), the “activity, negative = inhibition” value is inactive: -11.5%.

In the case of `CN(C)CCCc1cc(C(=O)Nc2ccc(-c3ccncc3)cc2)ccc1O`, the “activity, negative = inhibition” value is inactive: 1.1%.

With `Nc1nc2c(nc(Br)n2[C@@H]2O[C@H]3COP(=O)(O)O[C@H]3[C@@H]2O)c(=O)[nH]1`, the “activity, negative = inhibition” value was inactive: -6.61%.

As for `Cc1sc2c3ccsc3ccc2[n+]1C`, the Potency is active: 25.1 µM.

Turning to `Cc1ccccc1/C=C\c1nc2ccccc2c(=O)n1Cc1ccccc1`, the “activity, negative = inhibition” value is inactive: -6.64%.

Regarding `COc1ccc(C(=O)/C=C/c2ccc(F)cc2)c(OC(=O)c2ccc([N+](=O)[O-])cc2)c1`, the Potency is active: 10 µM.

As for `O=C(Nc1ccccc1C(F)(F)F)N1CCN(c2ccc3nnc(-c4ccc(F)cc4)n3n2)CC1`, the “activity, negative = inhibition” value was inactive: -7.68%.

With `Clc1ccc(C(c2ccccc2Cl)C(Cl)Cl)cc1` (centres undefined), the “activity, negative = inhibition” value is inactive: -15%.

Turning to `O=C(/C=C/c1ccccc1[N+](=O)[O-])Nc1ccccc1`, the “activity, negative = inhibition” value was inactive: -15.9%.

For `C=CCN1CCc2cc(O)c(O)cc2C(c2ccccc2)C1` (centres undefined), the “activity, negative = inhibition” value was inactive: -19.4%.

As to `NC(=O)C1=C[C@@H](c2ccc(C(F)(F)F)cc2)C[C@@H](OCCCCO)O1`, the “activity, negative = inhibition” value is inactive: -15.6%.
